About 540 (0.36%) of roughly 150,000 compounds showed an effect of 50% or more. The list shows a part of the results.

In the experiment the test system is Plasmodium falciparum. In words: Primary screen in NF54 nanoGlo assay, in single point, at 2uM, 72h; a lower Z score goes with more inhibition. It is filed as functional, Erythrocyte. The conditions noted are these: timepoint 72 hour.
As for `Cc1nn(C)c(C(=O)NC[C@H]2COCCO2)c1Cl`, the “% Inhibition” value turned out to be 6% and the Z score is given as -0.79.

In the case of `COc1ccc(CN(Cc2cccnc2)C2CC2)cc1Cn1cncn1`, the “% Inhibition” value is given as 8% and the Z score was -1.3.

Consider `Cn1ncc2c(N)nc(N3CC[C@H](Cc4ccc(F)c(F)c4)C3)nc21`, for which the “% Inhibition” value is given as 10% and the Z score was -1.32.

For `CC[C@@H](CO)NC(=O)NCc1cc(Cl)cc2c1OCC2`, the “% Inhibition” value is given as -13% and the Z score stood at 1.78.

Regarding `CC(C)c1nc(CS(=O)(=O)Cc2noc(C3CC3)n2)no1`, the “% Inhibition” value is on record as -13% and the Z score stood at 1.46.

Turning to `COc1cccc(OCCn2ncn(C)c2=O)c1`, the “% Inhibition” value is reported as -11% and the Z score is listed as 1.68.

As to `COc1ccc(S(=O)(=O)N2CC[C@H](c3nc4ccccc4n3C)C2)cc1`, the “% Inhibition” value is listed as -14% and the Z score came to 2.68.

`COc1ccccc1-c1cc(C(=O)Nc2sc3c(c2C#N)CC[C@H](C)C3)c2ccccc2n1`: the “% Inhibition” value was 11% and the Z score is on record as -1.32.

Regarding `CC1(C)CN(CCCn2cnnn2)CC[C@]1(C)O`, the “% Inhibition” value is -5% and the Z score came out at 0.92.

`NC(=O)C1C2CCCC2CN1C(=O)c1ccncc1F` (stereo not drawn): the “% Inhibition” value is reported as -2% and the Z score is 0.34.

As to `CCn1cc(CN2CC(Oc3ccc(-c4noc(-c5cccnc5)n4)cc3)C2)cn1`, the “% Inhibition” value was -22% and the Z score is on record as 4.13.

Take `COc1ncccc1C(=O)N1CC(n2nccn2)C1`: the “% Inhibition” value was determined as 1% and the Z score was -0.16.

Consider `S=c1sc2c(N3CCCC3)nc(-c3ccccc3)nc2n1-c1ccccc1`, for which the “% Inhibition” value came out at 9% and the Z score was -1.24.

With `CCCCS(=O)(=O)NCCn1ccn2nccc12`, the “% Inhibition” value is reported as -12% and the Z score worked out at 1.58.

With `CCc1ccccc1NC(=O)CN1CCN(C(=O)c2ccc(-n3cccn3)nc2)CC1`, the “% Inhibition” value is -8% and the Z score turned out to be 1.1.

On to `Cc1nc(N[C@@H](C)C(=O)N2CCCCC2)nc(C)c1CC(C)C`, for which the “% Inhibition” value is given as -7% and the Z score came out at 0.96.

Consider `O=C(O)[C@]12CN(C/C=C/c3ccccc3)C[C@H]1CN(C1CCCC1)C2`, for which the “% Inhibition” value is on record as 1% and the Z score was -0.11.

As to `O=C1[C@@H]2C[C@@H](CN2Cc2c(F)cccc2F)N1c1ccc2c(c1)OCO2`, the “% Inhibition” value was 1% and the Z score was -0.13.

On to `CC1(C)CCN(S(=O)(=O)N2C[C@@H]3NCCO[C@H]3C2)CC1`, for which the “% Inhibition” value is reported as -10% and the Z score came out at 1.

Turning to `O=C(c1ccn(CC(F)F)n1)N1CCCCC2CCCCC21` (stereo not drawn), the “% Inhibition” value was -7% and the Z score came out at 0.86.

With `CCCC(CCC)C(=O)Nc1cccc(C(=O)OCC)c1`, the “% Inhibition” value is reported as -5% and the Z score stood at 0.51.

As for `CN(C)Cc1cccc(NC(=O)C[C@@H](c2ccc(Cl)c(Cl)c2)N2CCOCC2)c1`, the “% Inhibition” value is 3% and the Z score was -0.55.

Turning to `CCOc1c(Cl)cccc1CC(=O)N(C)Cc1nccs1`, the “% Inhibition” value is listed as 3% and the Z score is listed as -0.46.

As to `Cc1ccc(CCC(=O)NS(=O)(=O)c2cn(C)c3ccccc23)o1`, the “% Inhibition” value came out at 2% and the Z score is reported as -0.27.
